{"source": "paper PMC11006913", "origin": "cited, not measured here", "details_in_all_cases": "PBM; conditions not shown; double strand, one strand shown; scale: upbm affinity estimate (log intensity, higher = more binding, comparable within an allelic series)", "key": {"[1]": {"target": "NKX2-5 K183E (Homo sapiens) (UniProt P52952)"}, "[2]": {"target": "NKX2-5 R161P (Homo sapiens) (UniProt P52952)"}, "[3]": {"target": "NKX2-5 R190C (Homo sapiens) (UniProt P52952)"}}, "note": "The other results are listed elsewhere or left out.", "data": [{"sequence": "TAAGTGGA [8-mer TAAGTGGA]", "values": [{"measurement": "binding signal", "setting": "[1]", "value": 12.1}, {"measurement": "binding signal", "setting": "[2]", "value": 13.3}, {"measurement": "binding signal", "setting": "[3]", "value": 10.9}]}, {"sequence": "ATCAAGTG [8-mer ATCAAGTG]", "values": [{"measurement": "binding signal", "setting": "[1]", "value": 11.6}, {"measurement": "binding signal", "setting": "[2]", "value": 12.8}, {"measurement": "binding signal", "setting": "[3]", "value": 10.9}]}, {"sequence": "CACTTAAC [8-mer CACTTAAC]", "values": [{"measurement": "binding signal", "setting": "[1]", "value": 11.6}, {"measurement": "binding signal", "setting": "[2]", "value": 12.8}, {"measurement": "binding signal", "setting": "[3]", "value": 10.8}]}, {"sequence": "ACCGGCCT [8-mer ACCGGCCT]", "values": [{"measurement": "binding signal", "setting": "[1]", "value": 9.95}, {"measurement": "binding signal", "setting": "[2]", "value": 10.1}, {"measurement": "binding signal", "setting": "[3]", "value": 9.99}]}, {"sequence": "ACACTACA [8-mer ACACTACA]", "values": [{"measurement": "binding signal", "setting": "[1]", "value": 11.1}, {"measurement": "binding signal", "setting": "[2]", "value": 11.7}, {"measurement": "binding signal", "setting": "[3]", "value": 11}]}, {"sequence": "CAAGTGGC [8-mer CAAGTGGC]", "values": [{"measurement": "binding signal", "setting": "[1]", "value": 11.8}, {"measurement": "binding signal", "setting": "[2]", "value": 12.6}, {"measurement": "binding signal", "setting": "[3]", "value": 10.6}]}, {"sequence": "CACTTAGA [8-mer CACTTAGA]", "values": [{"measurement": "binding signal", "setting": "[1]", "value": 11.4}, {"measurement": "binding signal", "setting": "[2]", "value": 12.4}, {"measurement": "binding signal", "setting": "[3]", "value": 10.7}]}, {"sequence": "CACAAGTG [8-mer CACAAGTG]", "values": [{"measurement": "binding signal", "setting": "[1]", "value": 11.5}, {"measurement": "binding signal", "setting": "[2]", "value": 12.6}, {"measurement": "binding signal", "setting": "[3]", "value": 10.8}]}, {"sequence": "GCCACGGA [8-mer GCCACGGA]", "values": [{"measurement": "binding signal", "setting": "[1]", "value": 10.2}, {"measurement": "binding signal", "setting": "[2]", "value": 10.4}, {"measurement": "binding signal", "setting": "[3]", "value": 10.2}]}, {"sequence": "CAGCCTTC [8-mer CAGCCTTC]", "values": [{"measurement": "binding signal", "setting": "[1]", "value": 10.1}, {"measurement": "binding signal", "setting": "[2]", "value": 10.3}, {"measurement": "binding signal", "setting": "[3]", "value": 10.1}]}, {"sequence": "CTAAGTAC [8-mer CTAAGTAC]", "values": [{"measurement": "binding signal", "setting": "[1]", "value": 10.9}, {"measurement": "binding signal", "setting": "[2]", "value": 12.3}, {"measurement": "binding signal", "setting": "[3]", "value": 10.6}]}, {"sequence": "GGTACTTA [8-mer GGTACTTA]", "values": [{"measurement": "binding signal", "setting": "[1]", "value": 11.2}, {"measurement": "binding signal", "setting": "[2]", "value": 13}, {"measurement": "binding signal", "setting": "[3]", "value": 10.7}]}, {"sequence": "AAGTGGCA [8-mer AAGTGGCA]", "values": [{"measurement": "binding signal", "setting": "[1]", "value": 11.7}, {"measurement": "binding signal", "setting": "[2]", "value": 12.4}, {"measurement": "binding signal", "setting": "[3]", "value": 10.7}]}, {"sequence": "CAAGTACA [8-mer CAAGTACA]", "values": [{"measurement": "binding signal", "setting": "[1]", "value": 11.1}, {"measurement": "binding signal", "setting": "[2]", "value": 12.2}, {"measurement": "binding signal", "setting": "[3]", "value": 10.8}]}, {"sequence": "CGGGTCGC [8-mer CGGGTCGC]", "values": [{"measurement": "binding signal", "setting": "[1]", "value": 10}, {"measurement": "binding signal", "setting": "[2]", "value": 9.94}, {"measurement": "binding signal", "setting": "[3]", "value": 10.1}]}, {"sequence": "CCCGGCCG [8-mer CCCGGCCG]", "values": [{"measurement": "binding signal", "setting": "[1]", "value": 9.87}, {"measurement": "binding signal", "setting": "[2]", "value": 9.89}, {"measurement": "binding signal", "setting": "[3]", "value": 9.89}]}, {"sequence": "AGGCGACC [8-mer AGGCGACC]", "values": [{"measurement": "binding signal", "setting": "[1]", "value": 10.2}, {"measurement": "binding signal", "setting": "[2]", "value": 10.2}, {"measurement": "binding signal", "setting": "[3]", "value": 10.2}]}, {"sequence": "AAGTGCGG [8-mer AAGTGCGG]", "values": [{"measurement": "binding signal", "setting": "[1]", "value": 10.7}, {"measurement": "binding signal", "setting": "[2]", "value": 12}, {"measurement": "binding signal", "setting": "[3]", "value": 10.5}]}, {"sequence": "GCTCTTGA [8-mer GCTCTTGA]", "values": [{"measurement": "binding signal", "setting": "[1]", "value": 10.8}, {"measurement": "binding signal", "setting": "[2]", "value": 12}, {"measurement": "binding signal", "setting": "[3]", "value": 10.3}]}, {"sequence": "ACTGTCCC [8-mer ACTGTCCC]", "values": [{"measurement": "binding signal", "setting": "[1]", "value": 10.4}, {"measurement": "binding signal", "setting": "[2]", "value": 10.6}, {"measurement": "binding signal", "setting": "[3]", "value": 10.4}]}, {"sequence": "AGCACTTA [8-mer AGCACTTA]", "values": [{"measurement": "binding signal", "setting": "[1]", "value": 11.5}, {"measurement": "binding signal", "setting": "[2]", "value": 12.9}, {"measurement": "binding signal", "setting": "[3]", "value": 10.8}]}, {"sequence": "GTCCGCCA [8-mer GTCCGCCA]", "values": [{"measurement": "binding signal", "setting": "[1]", "value": 10.4}, {"measurement": "binding signal", "setting": "[2]", "value": 10.5}, {"measurement": "binding signal", "setting": "[3]", "value": 10.4}]}, {"sequence": "AGCTCTTG [8-mer AGCTCTTG]", "values": [{"measurement": "binding signal", "setting": "[1]", "value": 10.8}, {"measurement": "binding signal", "setting": "[2]", "value": 11.4}, {"measurement": "binding signal", "setting": "[3]", "value": 10.6}]}, {"sequence": "AGGCGCGG [8-mer AGGCGCGG]", "values": [{"measurement": "binding signal", "setting": "[1]", "value": 10.1}, {"measurement": "binding signal", "setting": "[2]", "value": 10.1}, {"measurement": "binding signal", "setting": "[3]", "value": 10.1}]}, {"sequence": "CACTTAGC [8-mer CACTTAGC]", "values": [{"measurement": "binding signal", "setting": "[1]", "value": 11.5}, {"measurement": "binding signal", "setting": "[2]", "value": 12.6}, {"measurement": "binding signal", "setting": "[3]", "value": 10.7}]}, {"sequence": "CACTCAAG [8-mer CACTCAAG]", "values": [{"measurement": "binding signal", "setting": "[1]", "value": 11.2}, {"measurement": "binding signal", "setting": "[2]", "value": 12.4}, {"measurement": "binding signal", "setting": "[3]", "value": 10.6}]}, {"sequence": "CCAAGTGG [8-mer CCAAGTGG]", "values": [{"measurement": "binding signal", "setting": "[1]", "value": 11.5}, {"measurement": "binding signal", "setting": "[2]", "value": 12.4}, {"measurement": "binding signal", "setting": "[3]", "value": 10.5}]}, {"sequence": "ACCTCCCG [8-mer ACCTCCCG]", "values": [{"measurement": "binding signal", "setting": "[1]", "value": 10.2}, {"measurement": "binding signal", "setting": "[2]", "value": 10.3}, {"measurement": "binding signal", "setting": "[3]", "value": 10.2}]}, {"sequence": "CTGCGGTC [8-mer CTGCGGTC]", "values": [{"measurement": "binding signal", "setting": "[1]", "value": 10.3}, {"measurement": "binding signal", "setting": "[2]", "value": 10.5}, {"measurement": "binding signal", "setting": "[3]", "value": 10.2}]}, {"sequence": "CCCCGTGC [8-mer CCCCGTGC]", "values": [{"measurement": "binding signal", "setting": "[1]", "value": 10.2}, {"measurement": "binding signal", "setting": "[2]", "value": 10.2}, {"measurement": "binding signal", "setting": "[3]", "value": 10.2}]}, {"sequence": "GCTGACCC [8-mer GCTGACCC]", "values": [{"measurement": "binding signal", "setting": "[1]", "value": 10.3}, {"measurement": "binding signal", "setting": "[2]", "value": 10.3}, {"measurement": "binding signal", "setting": "[3]", "value": 10.3}]}, {"sequence": "ATCGGCAG [8-mer ATCGGCAG]", "values": [{"measurement": "binding signal", "setting": "[1]", "value": 10.3}, {"measurement": "binding signal", "setting": "[2]", "value": 10.2}, {"measurement": "binding signal", "setting": "[3]", "value": 10.3}]}, {"sequence": "ACCACTTA [8-mer ACCACTTA]", "values": [{"measurement": "binding signal", "setting": "[1]", "value": 12.5}, {"measurement": "binding signal", "setting": "[2]", "value": 13.3}, {"measurement": "binding signal", "setting": "[3]", "value": 10.9}]}, {"sequence": "CGGCTCAA [8-mer CGGCTCAA]", "values": [{"measurement": "binding signal", "setting": "[1]", "value": 10.2}, {"measurement": "binding signal", "setting": "[2]", "value": 10.4}, {"measurement": "binding signal", "setting": "[3]", "value": 10.2}]}, {"sequence": "ATAAGTGG [8-mer ATAAGTGG]", "values": [{"measurement": "binding signal", "setting": "[1]", "value": 12.5}, {"measurement": "binding signal", "setting": "[2]", "value": 13.3}, {"measurement": "binding signal", "setting": "[3]", "value": 11.1}]}, {"sequence": "ATCTCAAG [8-mer ATCTCAAG]", "values": [{"measurement": "binding signal", "setting": "[1]", "value": 11}, {"measurement": "binding signal", "setting": "[3]", "value": 10.7}]}, {"sequence": "CTCGAGAG [8-mer CTCGAGAG]", "values": [{"measurement": "binding signal", "setting": "[1]", "value": 10.8}, {"measurement": "binding signal", "setting": "[3]", "value": 10.4}]}, {"sequence": "GCTCTCAA [8-mer GCTCTCAA]", "values": [{"measurement": "binding signal", "setting": "[1]", "value": 10.5}, {"measurement": "binding signal", "setting": "[3]", "value": 10.3}]}, {"sequence": "ACTTAACA [8-mer ACTTAACA]", "values": [{"measurement": "binding signal", "setting": "[1]", "value": 10.9}, {"measurement": "binding signal", "setting": "[3]", "value": 10.8}]}, {"sequence": "AGTGTTAA [8-mer AGTGTTAA]", "values": [{"measurement": "binding signal", "setting": "[1]", "value": 11.1}, {"measurement": "binding signal", "setting": "[3]", "value": 10.9}]}, {"sequence": "AAGAGCAT [8-mer AAGAGCAT]", "values": [{"measurement": "binding signal", "setting": "[1]", "value": 11}, {"measurement": "binding signal", "setting": "[3]", "value": 10.8}]}, {"sequence": "AAAGCACT [8-mer AAAGCACT]", "values": [{"measurement": "binding signal", "setting": "[1]", "value": 11}, {"measurement": "binding signal", "setting": "[3]", "value": 10.7}]}, {"sequence": "AGGAGTGC [8-mer AGGAGTGC]", "values": [{"measurement": "binding signal", "setting": "[1]", "value": 10.6}, {"measurement": "binding signal", "setting": "[3]", "value": 10.4}]}]}
